# Results from PubChem BioAssay AID741 (SRMLSC, 2007).
# This list was built around the results that the source calls inconclusive (neither active nor inactive); the mix of calls is not that of the screen. Calls of active or inactive are those of the source. No stated cut-off is given here; in the data, active means toxicity enhancement factor above about 0.054; inconclusive means between about 0.00067 and that limit; inactive means weaker than that.
# Experiment: MRP-overexpressing cell chemosensitization – dose response (AID 741)
# Details: MRP-overexpressing cells, viability with/without cytotoxic drug; stronger effect = higher value
row,SMILES,toxicity enhancement factor
1,Cc1cccc(OCc2nnc(SCC(=O)c3ccccc3)o2)c1,inactive: -0.007
2,CCCCCCN1C=CC(=C/C=C(\C#N)C(=O)OCC)C=C1,inconclusive: 0.0188
3,CCOC(=O)Nc1ccc(S(=O)(=O)Nc2nccc(C)n2)cc1,inactive: -0.0025
4,Cc1ccc(CN(C(=O)c2ccco2)C(C(=O)NC2CCCC2)c2ccc(N3CCOCC3)cc2)cc1 (stereo unspecified),active: 0.0523
5,Oc1ccc(/C=C/c2cc(O)cc(O)c2)cc1,inconclusive: 0.0042
6,COC(=O)c1ccccc1NC(=O)CN1CCN(C(=O)c2ccco2)CC1,inconclusive: 0.0198
7,CC1CCc2c(nc3ncnn3c2N2CCN(c3ccccc3)CC2)C1 (stereo unspecified),inconclusive: 0.0101
8,CCN1CCN(c2nc(-c3cccnc3)nc3ccccc23)CC1,inconclusive: 0.0076
9,CCOC(=O)c1nnn(CC(=O)N2N=C(c3ccc(Cl)cc3)CC2c2ccc(OC)cc2)c1C(=O)OCC (stereo unspecified),inconclusive: 0.0171
10,Nc1ccc(S(=O)(=O)c2ccc(N)cc2)cc1,inconclusive: 0.021
11,CC(=O)Nc1ccc(S(=O)(=O)NCCC(=O)NCCc2ccc(F)cc2)cc1,inactive: 0
12,CCCN1C2=C(C(=O)CC(C)(C)C2)C(c2ccc(F)cc2)C2=C1c1ccccc1C2=O (stereo unspecified),active: 0.126
13,O=C1C=C(c2ccccc2)C[C@H](c2cccs2)[C@H]1n1cnc([N+](=O)[O-])c1,inconclusive: 0.0191
14,Cn1c(=O)c2c(nc(N3CCCCCC3)n2Cc2cccc3ccccc23)n(C)c1=O,inconclusive: 0.0373
15,Cc1cccc2cc(CN(Cc3nnnn3Cc3ccco3)C3CCCC3)c3nnnn3c12,inactive: -0.027
16,CC(C)CCn1c(=O)c2ccccc2n2c(CN(C)Cc3ccccc3)nnc12,active: 0.0598
17,Cc1c(Cl)cccc1Nc1ccccc1C(=O)O,inconclusive: 0.0053
18,Cc1nn(C)c(C)c1NC(=O)CSc1nc(C2CC2)nc2c1cnn2-c1ccccc1,inactive: -0.0298

row,SMILES,toxicity enhancement factor
1,Cc1ccc(Cn2nnc3c(=O)[nH]c(C4CCN(S(=O)(=O)c5ccc(F)cc5)CC4)nc32)cc1,inconclusive: 0.0013
2,O=C(NCc1ccccn1)c1cn(CCc2ccccc2)nn1,inactive: -0.0012
3,O=C(O)CCC(=O)c1ccc(-c2ccccc2)cc1,inconclusive: 0.0173
4,O=C(Nc1ccc2nn(-c3ccccc3)nc2c1)c1ccc2c(c1)OCO2,inconclusive: 0.003
5,O/N=C/c1cn(-c2ccccc2)nc1-c1ccc2c(c1)OCCO2,inconclusive: 0.0172
6,Cn1nnnc1SCC(=O)Nc1nc(-c2ccccc2)c(-c2ccccc2)o1,inconclusive: 0.001
7,CSc1cccc(NC(=O)C2CCN(S(C)(=O)=O)CC2)c1,inactive: -0.0028
8,c1ccc(N2CCN(c3ccccc3)C2c2ccncc2)cc1,active: 0.0739
9,CN1CCN(c2nc(-c3ccccn3)nc3ccccc23)CC1,inconclusive: 0.0074
10,COc1ccc2c(Cl)c(C(=O)NCCCn3ccnc3)sc2c1Cl,inconclusive: 0.0008
11,O=C(C1CCC1)N1CCC(c2nc3c(nnn3Cc3c(F)cccc3Cl)c(=O)[nH]2)CC1,inconclusive: 0.027
12,CCOC(=O)c1c(NC(=O)OC)sc(C(=O)N(C)C)c1C,inconclusive: 0.0142
13,Clc1cnc(N/N=C/c2cccs2)c(Cl)c1,inactive: -0.0069
14,Cc1ccc(N2C(N)=C(C#N)C(c3cccnc3)C3=C2CC(C)(C)CC3=O)cc1 (stereo unspecified),active: 0.0915
15,CCCCC(C)(O)C/C=C/[C@H]1[C@H](O)CC(=O)[C@@H]1CCCCCCC(=O)OC (stereo partly specified),inconclusive: 0.0078
16,COc1ccc(C2c3c(-c4ccccc4O)n[nH]c3C(=O)N2CCc2ccc(OC)c(OC)c2)cc1 (stereo unspecified),inconclusive: 0.0215
17,COc1ccc2c(c1)c(CC(=O)OCC(=O)O)c(C)n2C(=O)c1ccc(Cl)cc1,inconclusive: 0.0169
18,Cc1ccc(Cl)c(Nc2ccccc2C(=O)O)c1Cl,inactive: -0.0098
